In PubChem BioAssay (NCI) one finds TGI and GI50 data, which are given here for 22 compounds.

Each structure is given as a SMILES string.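 Where inhibition never reached the appropriate level, the endpoint shown equals the highest concentration tested. Otherwise, values were interpolated linearly from a five-concentration, 48-hour dose response in 96-well plates. Abbreviation: GI50, concentration required for 50% inhibition of growth. The concentration for full growth arrest is given as TGI.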

For this assay, the system named is NCI-H322M lung. Briefly: growth of human tumour cells (NCI), 48 h.
The compound `CC1=CCC(O)C=CC(C)C(O)C(C)C=C(C)C(=O)c2c(O)c(C)cc3c2C(=O)C(N)=C(NC(=O)/C=C\C=C/C=CC(C)C(O)CC1=O)C3=O` (configuration not stated) returned a TGI greater than 100 µM.
Same read-out and setting: next, `CCN1CCN(c2nc3ccccc3c3c2CCOc2ccccc2-3)CC1`: greater than 66.7 µM.
`CN1CCN(CCCNc2nc3ccc(Oc4ccc(NC(=O)Nc5cc(C(F)(F)F)ccc5F)cc4)cc3[nH]2)CC1`: the GI50 was 5.35 µM and the TGI was 11.4 µM.
`Cc1ccc([N+](=O)[O-])c2c(NCCC[N+](C)(C)[O-])c3ccccc3nc12` registered a TGI of 6.04 µM.
Same read-out and setting: next, `C(/C=C/Nc1ccc(Oc2ccccc2)cc1)=Nc1ccc(Oc2ccccc2)cc1`: 30.3 µM; `CCCCC1Cc2ccccc2-c2nc3ccccc3n21` (configuration not stated): 33.3 µM; `[N-]=[N+]=C1C(=O)NN=C1c1ccccc1`: greater than 100 µM.
With `COc1ccc2[nH]c3c4[nH]c5ccc(OC)cc5c4c4c(c3c2c1)C(=O)NC4=O`, the GI50 is greater than 25 µM and the TGI was greater than 25 µM.
Compound `COc1ccc(-c2cc(-c3cc(C)cc(Br)c3O)no2)cc1` yielded a TGI of 26.1 µM.
The same measure, in the same setting: to `Nc1ccc(Cc2c(N)[nH]c(=O)[nH]c2=O)cc1` belongs greater than 100 µM.
Compound `N#C[C@@H](c1ccccn1)c1ncccc1[N+](=O)[O-]` registered a TGI greater than 100 µM.
Still for that read-out and setting: next, `COC(=O)CC1N=C(NC#N)N(CCc2c[nH]c3ccccc23)C1=O` (configuration not stated): greater than 100 µM.
Take `COc1ccc(C(=O)c2cc(C)c(OC)c(C)c2)c(OC)c1O`: the GI50 is 0.0693 µM and the TGI is greater than 100 µM.
In the case of `O=C1c2ccccc2C(=O)C1(O)c1c[nH]c2ccccc12`, the TGI was greater than 100 µM.
As for `C[C@@H](c1ccccc1)n1c(N)c(C#N)c2ccc([N+](=O)[O-])cc2c1=O`, the TGI worked out at 57 µM.
Same read-out and setting: to `O=C(NCP(=O)(c1ccccc1)c1ccccc1)OCc1ccccc1` belongs greater than 100 µM.
The compound `O=C(Nc1ccccc1-c1nc2ccccc2[nH]c1=O)c1ccccc1` gave a TGI of 60.6 µM.
For the compound `COc1ccc(-c2[nH]c3ccc(OC)cc3c2/C=C(\C#N)S(=O)(=O)c2ccccc2)cc1`, the GI50 is 4.27 µM and the TGI was greater than 100 µM.
`CCOC(=O)C1SC(=Nc2ccc(C)c(C)c2)N=C1C` (configuration not stated): the TGI was greater than 100 µM.
In turn, `COc1c2c(cc3c1OCO3)[C@]13C=C[C@H](OC)C[C@H]1N(C2)CC3O` (some centres not stated) displayed a TGI greater than 100 µM.
On the same count and under the same terms, next, `Nc1nc([O-])c2c(n1)[n+](C1OC(CO)C(O)C1O)cn2CCO` (configuration not stated): greater than 100 µM.
For the compound `COc1cc2c3c(n(CCCN)c(=O)c2cc1OC)-c1ccc(C#N)cc1C3=O`, the GI50 is 16.3 µM and the TGI stood at 58.6 µM.
